Experimental data reported in PubChem BioAssay AID504332 (National Center for Advancing Translational Sciences (NCATS), 2011).
In all, about 350,000 compounds went through this assay and about 31,000 (8.9%) were called active. Inconclusive means that the source gave no clear call. Such entries were picked first, then a sample of the others. The call rests on the fitted dose curve; in most records, active means well fitted inhibition curve with a large enough effect; inconclusive means small, poorly fitted or top-dose-only effect; inactive means no such curve, though single readings can be large or run the other way. A potency beside an inconclusive call is a rough fit, not a confirmed value.

These compounds were tested against Histone-lysine N-methyltransferase EHMT2 (Homo sapiens) (UniProt Q96KQ7) (assay: qHTS Assay for Inhibitors of Histone Lysine Methyltransferase G9a). Conditions: G9a H3K9 monomethylation, AlphaScreen, 2 h; activity, negative = inhibition: at 59 µM (top of the series) unless noted.
Method in brief: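 G9a (20 nM) preincubated 15 min RT with compounds, then 500 nM biotinylated H3K9 peptide and 20 uM SAM added; 2 h RT reaction. Monomethyl-H3K9 product detected by AlphaScreen with anti-H3K9me1 antibody, streptavidin donor and anti-rabbit IgG acceptor beads.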
Further: nearly all actives have a fitted effect of over 75% in size.
On the % scale 0 is the no-effect control and ±100 the full control effect; potency means the concentration at half of the fitted maximal effect; tags describe the fitted curve by direction and shape.

Chain of UniProt Q96KQ7 (Q96KQ7 whole entry, looked up): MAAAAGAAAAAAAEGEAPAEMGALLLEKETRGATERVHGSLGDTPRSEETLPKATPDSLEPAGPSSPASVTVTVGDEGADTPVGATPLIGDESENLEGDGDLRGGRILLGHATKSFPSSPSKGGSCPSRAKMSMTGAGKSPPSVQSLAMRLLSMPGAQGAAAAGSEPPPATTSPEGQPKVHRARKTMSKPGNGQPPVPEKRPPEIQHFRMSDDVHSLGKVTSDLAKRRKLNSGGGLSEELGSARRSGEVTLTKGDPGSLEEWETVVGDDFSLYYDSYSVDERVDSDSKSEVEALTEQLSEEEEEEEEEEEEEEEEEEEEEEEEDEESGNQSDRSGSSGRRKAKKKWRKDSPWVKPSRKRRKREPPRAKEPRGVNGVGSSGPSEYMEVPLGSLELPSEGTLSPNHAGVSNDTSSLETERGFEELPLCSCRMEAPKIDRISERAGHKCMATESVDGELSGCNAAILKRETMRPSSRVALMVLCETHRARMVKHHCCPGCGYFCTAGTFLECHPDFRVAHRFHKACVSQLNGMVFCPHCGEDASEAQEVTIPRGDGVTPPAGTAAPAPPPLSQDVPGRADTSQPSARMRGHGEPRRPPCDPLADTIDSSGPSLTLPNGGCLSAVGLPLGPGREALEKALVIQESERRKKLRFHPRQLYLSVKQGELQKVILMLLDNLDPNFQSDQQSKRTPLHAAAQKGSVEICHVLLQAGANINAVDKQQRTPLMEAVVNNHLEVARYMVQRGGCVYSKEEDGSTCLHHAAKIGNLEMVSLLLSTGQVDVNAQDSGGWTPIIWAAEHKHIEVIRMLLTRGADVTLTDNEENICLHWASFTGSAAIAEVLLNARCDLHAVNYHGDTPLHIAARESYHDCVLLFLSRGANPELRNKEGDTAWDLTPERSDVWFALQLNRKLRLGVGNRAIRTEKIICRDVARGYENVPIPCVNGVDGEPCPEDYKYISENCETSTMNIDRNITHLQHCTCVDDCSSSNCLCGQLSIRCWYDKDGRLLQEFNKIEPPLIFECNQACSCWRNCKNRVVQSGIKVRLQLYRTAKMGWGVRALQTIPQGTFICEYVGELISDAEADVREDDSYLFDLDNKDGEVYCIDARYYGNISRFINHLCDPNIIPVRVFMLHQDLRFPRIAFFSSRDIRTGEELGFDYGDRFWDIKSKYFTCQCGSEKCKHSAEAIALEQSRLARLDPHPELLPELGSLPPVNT

SMILES	Potency	activity, negative = inhibition
COc1ccc(N2CCC(CNC(=S)Nc3ccc(C)cc3C)C2)cc1 (configuration not stated)	inconclusive: 5.01 µM [inhibitor, single point]	–
Cc1ccc(N(C)S(=O)(=O)c2nnc(NC(=O)C3CCCCC3)s2)cc1	–	inactive: -1.88%
CCOc1ccc2nc(N=NC3=C(O)CC(C)(C)CC3=O)sc2c1	inconclusive: 50.1 µM [inhibitor, partial curve, poor fit]	–
C=CCn1c(C)c(C(C)=O)c(N2CCN(C(c3ccccc3)c3ccccc3)CC2)nc1=S	–	inactive: -0.602% [at 102 µM]
O=[N+]([O-])c1cc(-n2cnnn2)ccc1N1CCC(Cc2ccccc2)CC1	–	inactive: 4.44% [at 0.501 µM]
O=C(O)CNC(=O)CC1S/C(=N/N=C2/NC(=O)CS2)NC1=O (configuration not stated)	active: 28.2 µM	–
O=C(CN(CC1CCCO1)C(=O)CCC(=O)Nc1nccs1)NCC1CCCO1 (configuration not stated)	inconclusive: 79.4 µM [inhibitor, partial curve, poor fit]	–
O=C(Cc1n[nH]c(=O)c2ccccc12)Nc1cc(Cl)ccc1-n1cncn1	–	inactive: -5.74% [at 102 µM]
O=C(NCCOCCn1c(=O)oc2ccccc21)Nc1ccc(Cl)cc1	–	inactive: 0.233%
CCNc1ccc(-c2nc(-c3ccco3)no2)cc1[N+](=O)[O-]	–	inactive: -36.2%
CCc1ccc(OCCCC(=O)Nc2ccc(S(=O)(=O)Nc3cc(C)nc(C)n3)cc2)cc1	inconclusive: 89.1 µM [inhibitor, single point]	–
Cc1cccc(OCCNC(=O)CCNS(=O)(=O)c2ccc3ccccc3c2)c1	–	inactive: -5.05% [at 2.33 µM]
CCOC(=O)c1cccc(NC(=O)CCCn2c(=O)c3cccn3c3cccnc32)c1	inconclusive: 56.2 µM [inhibitor, partial curve, poor fit]	–
CC(C)CN(C(=O)CSc1nn(-c2ccc(Cl)cc2)c(=S)s1)C1CCS(=O)(=O)C1 (configuration not stated)	active: 20 µM	–
Cc1ccc2oc(=O)n(CCCOc3ccc(Cl)cc3)c2c1	–	inactive: 150%
O=C(NN=C1CCCCCCCCCCC1)c1cccc(S(=O)(=O)N2CCOCC2)c1	–	inactive: 12.6%
COc1ccccc1CNC(=O)COC(=O)CCN=C1NS(=O)(=O)c2ccccc21	inconclusive: 89.1 µM [inhibitor, single point]	–
CCCc1ccc(C(=O)NNc2cc(Cl)ccc2Cl)cc1	inconclusive: 79.4 µM [inhibitor, single point]	–
COCC(C)NCc1ccc(OC)c(Br)c1 (configuration not stated)	inconclusive: 28.2 µM [inhibitor, full curve]	–
Cc1c(C)c2cc(Cl)c(OCc3nn[nH]n3)cc2oc1=O	inconclusive: 79.4 µM [inhibitor, partial curve, poor fit]	–
Cc1cc(C)cc(OCC(=O)OCC(=O)N2CCc3ccccc32)c1	–	inactive: 22.1% [at 102 µM]
Cc1ccccc1NC(=O)c1c(C)nn(-c2ccccc2)c1Cl	inconclusive: 3.55 µM [inhibitor, partial curve, poor fit]	–
C/C(CC(=O)Nc1cccc(C(F)(F)F)c1)=N\NC(=O)c1ccncc1	inconclusive: 56.2 µM [inhibitor, single point]	–
Cc1cc(C)c(NC(=O)c2cc(S(=O)(=O)N3CCN(c4ccccc4F)CC3)ccc2F)c(C)c1	–	inactive: -1.67%

SMILES	Potency	activity, negative = inhibition
CC1(C)CC(=O)C2=C(C1)NCN(Cc1ccc3c(c1)OCO3)C2	–	inactive: -33.5% [at 102 µM]
O=S(=O)(NCc1csc(-c2cccnc2)n1)c1ccc(Cl)s1	inconclusive: 35.5 µM [inhibitor, single point]	–
CCOCCc1nnc(NC(=O)COC)s1	–	inactive: -32% [at 12.7 µM]
CCN(CC)C(=O)Cn1ncc2c1-c1ccccc1OC2	inconclusive: 89.1 µM [inhibitor, single point]	–
CNC(CC(=O)c1ccc([N+](=O)[O-])cc1)C(Cl)(Cl)Cl (configuration not stated)	active: 3.98 µM	–
Cc1nc(Cl)cc(N/N=C/c2ccc(O)cc2O)n1	inconclusive: 89.1 µM [inhibitor, single point]	–
Cc1ccc(C(=O)N/C(=C\c2cccc([N+](=O)[O-])c2)C(=O)Nc2cccc(C(=O)O)c2)cc1	inconclusive: 100 µM [inhibitor, single point]	–
Cc1cc(C)cc(NC(=S)NCCN(C2CCCCC2)C2CCCC2)c1	–	inactive: -17.7%
N#Cc1c(NC(=O)COC(=O)c2ccc(S(=O)(=O)N3CCCC3)cc2)sc2c1CCCCC2	inconclusive: 89.1 µM [inhibitor, single point]	–
CCOc1ccc(NS(=O)(=O)c2ccc(C(=O)NCC(c3ccc(OC)cc3)N3CCOCC3)cc2)cc1 (configuration not stated)	inconclusive: 79.4 µM [inhibitor, single point]	–
CCOC(=O)c1ccccc1NC(=O)N1CCC(N2CCN(Cc3ccccc3)C(=O)C2=O)CC1	–	inactive: 2.58%
CCn1cnc2cc(NCc3ccc(OC)cc3)ccc21	active: 8.91 µM	–
Cc1ccc(N)cc1O	–	inactive: -8.98% [at 0.501 µM]
Cc1ccc(C)c(NC(=O)COC(=O)CCc2ccc(S(=O)(=O)N3CCOCC3)cc2)c1	–	inactive: 12.5% [at 102 µM]
Cc1csc(NC(=O)c2ccc(OCC3CCCO3)cc2)n1 (configuration not stated)	–	inactive: -6.86%
O=C(CN1C(=O)C2CC=CCC2C1=O)OCc1cc(=O)n2cc(Br)ccc2n1 (configuration not stated)	inconclusive: 89.1 µM [inhibitor, partial curve, poor fit]	–
COc1ccc(-c2csc(Nc3cccc(C)n3)n2)cc1C	active: 50.1 µM	–
N#Cc1ccc(C(=O)OCC(=O)Nc2cccc(S(=O)(=O)N3CCCCC3)c2)cc1	inconclusive: 17.8 µM [inhibitor, single point]	–
COc1cc(C(=O)Oc2ccc(Br)cc2C(=S)N2CCOCC2)cc(OC)c1OC	active: 10 µM	–
CC(=O)Nc1ccc([C@H]2[C@H](C)CC[C@H]3C(=O)N4[C@@H](CC[C@@H](C)[C@@H]4c4ccc(NC(C)=O)cc4)C(=O)N32)cc1	inconclusive: 79.4 µM [inhibitor, single point]	–
CCCCCCCCS(=O)C1CS(=O)(=O)CC1O (configuration not stated)	inconclusive: 28.2 µM [inhibitor, single point]	–
C(=N\Nc1nc(-c2ccccc2)cs1)/c1cccnc1	inconclusive: 35.5 µM [inhibitor, single point]	–
O=C(Cn1c2c(sc1=O)C1c3ccccc3OCC1CS2)Nc1ccc(Cl)c(Cl)c1 (configuration not stated)	inconclusive: 31.6 µM [inhibitor, single point]	–
COc1ccc(-n2nc3c(c2NC(=O)CCCCl)CSC3)cc1	–	inactive: 9.34% [at 102 µM]

SMILES	Potency	activity, negative = inhibition
COC(C(=O)N1CCC(CCC(=O)Nc2ccccc2)CC1)c1ccccc1 (configuration not stated)	–	inactive: 2.45% [at 102 µM]
CCCCN(C)C(=O)C1CCN(CCCc2ccccc2)CC1	inconclusive: 1.41 µM [inhibitor, single point]	–
Cc1cc(NC(=O)COC(=O)CSc2nc3cc(Cl)ccc3n2Cc2ccccc2)no1	–	inactive: 14.4%
CCCC1=Nc2cc(C(=O)NCCc3ccc(OC)cc3OC)ccc2Sc2ccccc21	–	inactive: -45.6%
Cc1ccc(NC(=O)C2CCN(c3ncnc4c3nc3n4CCCCC3)CC2)nc1	–	inactive: 29.9% [at 102 µM]
Cc1ccc(NC(=O)CN2C(=O)CCn3nc(-c4cccn4C)cc32)cc1	–	inactive: -43.9%
O=C(/C=C/c1ccco1)N1CCN(c2ccc(F)cc2)CC1	inconclusive: 56.2 µM [inhibitor, partial curve, poor fit]	–
O=C(c1cc2nc(C3CC3)cc(C(F)F)n2n1)N1CCOCC1	–	inactive: -24.7% [at 12.7 µM]
Cc1ccccc1C(=O)Nc1ccc2c(C#N)c3nc4ccccc4nc3n2c1	active: 5.01 µM	–
O=C(NNc1cc(Cl)cc(Cl)c1)C1CCC1	inconclusive: 89.1 µM [inhibitor, single point]	–
Cc1cc(N2C(=O)c3ccc(C(=O)Nc4ccc(O)cc4C(=O)O)cc3C2=O)no1	active: 50.1 µM	–
O=C(Nc1nc2nc(-c3ccccc3)cc(=O)n2[nH]1)c1ccc(Cl)cc1	inconclusive: 35.5 µM [inhibitor, partial curve, poor fit]	–
COc1ccc(-n2nc(C(=O)N3CCN(c4cccc(C)c4C)CC3)c3c4ccccc4n(C)c3c2=O)cc1	–	inactive: 6.43%
CC1(c2ccccc2)NC(=O)N(CC(=O)Nc2cc3c(cc2Br)OCCO3)C1=O (configuration not stated)	inconclusive: 89.1 µM [inhibitor, single point]	–
Cc1cccc(N=C2NC(=O)/C(=C/c3cn(C)c4ccccc34)S2)c1	active: 79.4 µM	–
Cc1cc(C(=O)CCC(=O)N2CCN(c3ccccc3)CC2)c(C)s1	inconclusive: 79.4 µM [inhibitor, single point]	–
COc1ccc2nc(N/C(=N/S(=O)(=O)c3cccs3)c3ccccc3Cl)sc2c1	inconclusive: 39.8 µM [inhibitor, partial curve]	–
COc1cccc(C(c2c(C)[nH]n(-c3ccccc3)c2=O)c2c(C)[nH]n(-c3ccccc3)c2=O)c1OC	inconclusive: 25.1 µM [inhibitor, single point]	–
O=c1ccc(-c2ccc(S(=O)(=O)Nc3cccc(Br)c3)o2)n[nH]1	inconclusive: 5.01 µM [inhibitor, partial curve, poor fit]	–
Cc1ccc(-c2nn(-c3ccccc3)cc2CO)o1	inconclusive: 22.4 µM [inhibitor, single point]	–
COc1ccc(Cl)cc1NC(=O)c1cccc(-n2cnnn2)c1	inconclusive: 50.1 µM [inhibitor, partial curve]	–
Cc1csc2nc(CN3CCN(CC(=O)N(C)C)CC3)cc(=O)n12	active: 44.7 µM	–
CCN(CC)CCNC(=O)c1nn(C)c2c1CS(=O)(=O)c1ccccc1-2	inconclusive: 8.91 µM [inhibitor, partial curve, poor fit]	–
COC(=O)CSc1nc2cc3c(cc2cc1C#N)OCO3	inconclusive: 2.82 µM [inhibitor, partial curve, poor fit]	–
